Results from PMC12820563.
Some of the results follow. The list includes weakly bound sequences.

Each sequence was assayed against T1, MBP-FoxP3dN (UniProt Q99JB6) (assay: PD-seq (MBP pull-down with sequencing)). Conditions: 20 mM Tris-HCl pH 7.5, 100 mM NaCl, 1.5 mM MgCl2, 0.4 uM protein, 0.1 uM dsDNA library, 30 min, room temperature, amylose pull-down; high values mean tight binding; double strand, one strand shown.
T1 sequence: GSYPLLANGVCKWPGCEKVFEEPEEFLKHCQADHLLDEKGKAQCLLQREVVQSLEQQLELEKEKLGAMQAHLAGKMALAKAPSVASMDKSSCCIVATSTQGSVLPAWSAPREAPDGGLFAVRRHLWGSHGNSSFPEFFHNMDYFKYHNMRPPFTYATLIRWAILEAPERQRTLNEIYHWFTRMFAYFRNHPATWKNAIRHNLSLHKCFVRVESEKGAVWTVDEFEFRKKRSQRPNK

Row | Sequence | binding signal (RPM ratio (pull-down/input))
1 | GATGATTGTTCTCCCAGCTGATGAATTATCTCTTTCGAGTAAACAAATTTTCCTAATCTTTCTGTTCAAGCGCCATCTAC | 0.302
2 | GATGATTGTTCTCCCAGCTGATGAATTTAGATCGTCGAGTAAACAAATTTTCCTAATCTTTCTGTTCAAGCGCCATCTAC | 0.458
3 | GATGATTGTTCTCCCAGCTGATGAATTGGACTTTTCGAGTAAACAAATTTTCCTAATCTTTCTGTTCAAGCGCCATCTAC | 0.377
4 | GATGATTGTTCTCCCAGCTGATGAATTGCCATAATCGAGTAAACAAATTTTCCTAATCTTTCTGTTCAAGCGCCATCTAC | 1.31
5 | GATGATTGTTCTCCCAGCTGATGAATTTCTCGTGTCGAGTAAACAAATTTTCCTAATCTTTCTGTTCAAGCGCCATCTAC | 0.36
6 | GATGATTGTTCTCCCAGCTGATGAATTACTTGGGTCGAGTAAACAAATTTTCCTAATCTTTCTGTTCAAGCGCCATCTAC | 0.314
7 | GATGATTGTTCTCCCAGCTGATGAATTCGTAGGGTCGAGTAAACAAATTTTCCTAATCTTTCTGTTCAAGCGCCATCTAC | 1.01
8 | GATGATTGTTCTCCCAGCTGATGAATTTAGCAAATCGAGTAAACAAATTTTCCTAATCTTTCTGTTCAAGCGCCATCTAC | 0.663
9 | GATGATTGTTCTCCCAGCTGATGAATTATGTCCATCGAGTAAACAAATTTTCCTAATCTTTCTGTTCAAGCGCCATCTAC | 0.939
10 | GATGATTGTTCTCCCAGCTGATGAATTTTGACGGTCGAGTAAACAAATTTTCCTAATCTTTCTGTTCAAGCGCCATCTAC | 0.301
11 | GATGATTGTTCTCCCAGCTGATGAATTAAAAAATTCGAGTAAACAAATTTTCCTAATCTTTCTGTTCAAGCGCCATCTAC | 0.209
12 | GATGATTGTTCTCCCAGCTGATGAATTGGGGTTTTCGAGTAAACAAATTTTCCTAATCTTTCTGTTCAAGCGCCATCTAC | 0.67
13 | GATGATTGTTCTCCCAGCTGATGAATTGCACGACTCGAGTAAACAAATTTTCCTAATCTTTCTGTTCAAGCGCCATCTAC | 0.622
14 | GATGATTGTTCTCCCAGCTGATGAATTTAATCGCTCGAGTAAACAAATTTTCCTAATCTTTCTGTTCAAGCGCCATCTAC | 0.362
15 | GATGATTGTTCTCCCAGCTGATGAATTATTCTCATCGAGTAAACAAATTTTCCTAATCTTTCTGTTCAAGCGCCATCTAC | 0.398
16 | GATGATTGTTCTCCCAGCTGATGAATTGTTAATGTCGAGTAAACAAATTTTCCTAATCTTTCTGTTCAAGCGCCATCTAC | 0.803
17 | GATGATTGTTCTCCCAGCTGATGAATTTTACGGCTCGAGTAAACAAATTTTCCTAATCTTTCTGTTCAAGCGCCATCTAC | 0.239
18 | GATGATTGTTCTCCCAGCTGATGAATTTTCCGTCTCGAGTAAACAAATTTTCCTAATCTTTCTGTTCAAGCGCCATCTAC | 0.292
19 | GATGATTGTTCTCCCAGCTGATGAATTACGGTACTCGAGTAAACAAATTTTCCTAATCTTTCTGTTCAAGCGCCATCTAC | 0.633
20 | GATGATTGTTCTCCCAGCTGATGAATTCTGGGGATCGAGTAAACAAATTTTCCTAATCTTTCTGTTCAAGCGCCATCTAC | 0.291
21 | GATGATTGTTCTCCCAGCTGATGAATTCTGAGTTTCGAGTAAACAAATTTTCCTAATCTTTCTGTTCAAGCGCCATCTAC | 1.48

Row | Sequence | binding signal (RPM ratio (pull-down/input))
22 | GATGATTGTTCTCCCAGCTGATGAATTTTTTTGCTCGAGTAAACAAATTTTCCTAATCTTTCTGTTCAAGCGCCATCTAC | 0.366
23 | GATGATTGTTCTCCCAGCTGATGAATTCAAGACATCGAGTAAACAAATTTTCCTAATCTTTCTGTTCAAGCGCCATCTAC | 0.33
24 | GATGATTGTTCTCCCAGCTGATGAATTCGTGCAATCGAGTAAACAAATTTTCCTAATCTTTCTGTTCAAGCGCCATCTAC | 3.15
25 | GATGATTGTTCTCCCAGCTGATGAATTCCCATCTTCGAGTAAACAAATTTTCCTAATCTTTCTGTTCAAGCGCCATCTAC | 0.307
26 | GATGATTGTTCTCCCAGCTGATGAATTACAATGTTCGAGTAAACAAATTTTCCTAATCTTTCTGTTCAAGCGCCATCTAC | 0.908
27 | GATGATTGTTCTCCCAGCTGATGAATTCAGGCTCTCGAGTAAACAAATTTTCCTAATCTTTCTGTTCAAGCGCCATCTAC | 0.404
28 | GATGATTGTTCTCCCAGCTGATGAATTGAAGTGGTCGAGTAAACAAATTTTCCTAATCTTTCTGTTCAAGCGCCATCTAC | 0.353
29 | GATGATTGTTCTCCCAGCTGATGAATTTGCAGTATCGAGTAAACAAATTTTCCTAATCTTTCTGTTCAAGCGCCATCTAC | 1.49
30 | GATGATTGTTCTCCCAGCTGATGAATTGCTTCTTTCGAGTAAACAAATTTTCCTAATCTTTCTGTTCAAGCGCCATCTAC | 0.656
31 | GATGATTGTTCTCCCAGCTGATGAATTTTGAGTGTCGAGTAAACAAATTTTCCTAATCTTTCTGTTCAAGCGCCATCTAC | 1.81
32 | GATGATTGTTCTCCCAGCTGATGAATTCGCGTTTTCGAGTAAACAAATTTTCCTAATCTTTCTGTTCAAGCGCCATCTAC | 1.2
33 | GATGATTGTTCTCCCAGCTGATGAATTGATCCTCTCGAGTAAACAAATTTTCCTAATCTTTCTGTTCAAGCGCCATCTAC | 0.287
34 | GATGATTGTTCTCCCAGCTGATGAATTTGATAGTTCGAGTAAACAAATTTTCCTAATCTTTCTGTTCAAGCGCCATCTAC | 3.99
35 | GATGATTGTTCTCCCAGCTGATGAATTCGCCCCTTCGAGTAAACAAATTTTCCTAATCTTTCTGTTCAAGCGCCATCTAC | 0.389
36 | GATGATTGTTCTCCCAGCTGATGAATTCGTAGTCTCGAGTAAACAAATTTTCCTAATCTTTCTGTTCAAGCGCCATCTAC | 1.07
37 | GATGATTGTTCTCCCAGCTGATGAATTTTAGCGATCGAGTAAACAAATTTTCCTAATCTTTCTGTTCAAGCGCCATCTAC | 0.522
38 | GATGATTGTTCTCCCAGCTGATGAATTGGAAGACTCGAGTAAACAAATTTTCCTAATCTTTCTGTTCAAGCGCCATCTAC | 0.219
39 | GATGATTGTTCTCCCAGCTGATGAATTGAGGTACTCGAGTAAACAAATTTTCCTAATCTTTCTGTTCAAGCGCCATCTAC | 0.549
40 | GATGATTGTTCTCCCAGCTGATGAATTACCGCCCTCGAGTAAACAAATTTTCCTAATCTTTCTGTTCAAGCGCCATCTAC | 0.552
41 | GATGATTGTTCTCCCAGCTGATGAATTGTGATTTTCGAGTAAACAAATTTTCCTAATCTTTCTGTTCAAGCGCCATCTAC | 2.75
42 | GATGATTGTTCTCCCAGCTGATGAATTTAGGCGGTCGAGTAAACAAATTTTCCTAATCTTTCTGTTCAAGCGCCATCTAC | 0.538

Row | Sequence | binding signal (RPM ratio (pull-down/input))
43 | GATGATTGTTCTCCCAGCTGATGAATTGACAGACTCGAGTAAACAAATTTTCCTAATCTTTCTGTTCAAGCGCCATCTAC | 0.347
44 | GATGATTGTTCTCCCAGCTGATGAATTCGGTTGCTCGAGTAAACAAATTTTCCTAATCTTTCTGTTCAAGCGCCATCTAC | 1.66
45 | GATGATTGTTCTCCCAGCTGATGAATTGGTTTAATCGAGTAAACAAATTTTCCTAATCTTTCTGTTCAAGCGCCATCTAC | 0.677
46 | GATGATTGTTCTCCCAGCTGATGAATTACCAATCTCGAGTAAACAAATTTTCCTAATCTTTCTGTTCAAGCGCCATCTAC | 0.415
47 | GATGATTGTTCTCCCAGCTGATGAATTAAAATGGTCGAGTAAACAAATTTTCCTAATCTTTCTGTTCAAGCGCCATCTAC | 0.25
48 | GATGATTGTTCTCCCAGCTGATGAATTATTCAACTCGAGTAAACAAATTTTCCTAATCTTTCTGTTCAAGCGCCATCTAC | 0.381
49 | GATGATTGTTCTCCCAGCTGATGAATTACAGCTTTCGAGTAAACAAATTTTCCTAATCTTTCTGTTCAAGCGCCATCTAC | 0.989
50 | GATGATTGTTCTCCCAGCTGATGAATTATCATGATCGAGTAAACAAATTTTCCTAATCTTTCTGTTCAAGCGCCATCTAC | 0.375
51 | GATGATTGTTCTCCCAGCTGATGAATTCCCTATTTCGAGTAAACAAATTTTCCTAATCTTTCTGTTCAAGCGCCATCTAC | 0.333
52 | GATGATTGTTCTCCCAGCTGATGAATTTAAGGCGTCGAGTAAACAAATTTTCCTAATCTTTCTGTTCAAGCGCCATCTAC | 0.571
53 | GATGATTGTTCTCCCAGCTGATGAATTTAACCTCTCGAGTAAACAAATTTTCCTAATCTTTCTGTTCAAGCGCCATCTAC | 0.418
54 | GATGATTGTTCTCCCAGCTGATGAATTAAATGATTCGAGTAAACAAATTTTCCTAATCTTTCTGTTCAAGCGCCATCTAC | 0.636
55 | GATGATTGTTCTCCCAGCTGATGAATTTTTTAGGTCGAGTAAACAAATTTTCCTAATCTTTCTGTTCAAGCGCCATCTAC | 0.197
56 | GATGATTGTTCTCCCAGCTGATGAATTTCAATCGTCGAGTAAACAAATTTTCCTAATCTTTCTGTTCAAGCGCCATCTAC | 0.415
57 | GATGATTGTTCTCCCAGCTGATGAATTGTAGAACTCGAGTAAACAAATTTTCCTAATCTTTCTGTTCAAGCGCCATCTAC | 0.291
58 | GATGATTGTTCTCCCAGCTGATGAATTAGATCACTCGAGTAAACAAATTTTCCTAATCTTTCTGTTCAAGCGCCATCTAC | 0.483
59 | GATGATTGTTCTCCCAGCTGATGAATTGGATGGCTCGAGTAAACAAATTTTCCTAATCTTTCTGTTCAAGCGCCATCTAC | 0.46
60 | GATGATTGTTCTCCCAGCTGATGAATTACGCAGGTCGAGTAAACAAATTTTCCTAATCTTTCTGTTCAAGCGCCATCTAC | 0.804
61 | GATGATTGTTCTCCCAGCTGATGAATTCTCCAGCTCGAGTAAACAAATTTTCCTAATCTTTCTGTTCAAGCGCCATCTAC | 0.232
62 | GATGATTGTTCTCCCAGCTGATGAATTTGATGAGTCGAGTAAACAAATTTTCCTAATCTTTCTGTTCAAGCGCCATCTAC | 0.974
63 | GATGATTGTTCTCCCAGCTGATGAATTCCCCACTTCGAGTAAACAAATTTTCCTAATCTTTCTGTTCAAGCGCCATCTAC | 0.251
